# According to paper PMC7819943, “Rice protein-binding microarrays: a tool to detect cis-acting elements near promoter regions in rice”:
# The list shows a part of the results.
# Molecular target: T1, OsWOX13 (Oryza sativa, UniProt Q5QMM3 1-267)
# T1 sequence: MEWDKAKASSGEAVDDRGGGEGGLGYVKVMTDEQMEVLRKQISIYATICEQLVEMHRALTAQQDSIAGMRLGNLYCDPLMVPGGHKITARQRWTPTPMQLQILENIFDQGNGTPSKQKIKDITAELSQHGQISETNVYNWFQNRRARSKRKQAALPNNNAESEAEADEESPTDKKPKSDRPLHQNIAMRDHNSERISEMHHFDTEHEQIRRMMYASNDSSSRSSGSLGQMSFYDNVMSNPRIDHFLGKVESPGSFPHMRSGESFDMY
# Experiment: protein-binding microarray (RPBM); PBS, 2% BSA, 51.3 ng/ul salmon testes DNA, 50 uM zinc acetate, 200 nM TF, 25 C, 1 h; high values mean tight binding
# Conditions: protein: recombinant; tags: N-terminal polyhistidine and DsRed monomer fusion (pET32a); label: CyDye5-dUTP incorporated in the synthesized complementary strand; 3' TTTTT single-stranded linker to array surface; dsDNA, one strand shown
# In short: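 Binding signal is defined as the fluorescence intensity of each feature in arbitrary units, read on an Axon 4000B scanner. Transcription factors with N-terminal polyhistidine and DsRed fusions came from E. coli BL21-CodonPlus and were purified on Ni–NTA. They were incubated at 200 nM for 1 h at 25 °C on a custom Agilent array that had been made double-stranded with Cy5-dUTP, with 50 µM zinc acetate present, and the array was washed.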
row,Sequence,binding signal
1,TCGAATTATCATCCGTTTGTGTTCTTGTCAGTTACTCCACCGGAGTCACCTAGTGCAG,3220 fluorescence intensity (a.u.)
2,GCATTTGATTGTGCAAGTTGGGTTTACAGCTGCACTTATACGGAGTCACCTAGTGCAG,4470 fluorescence intensity (a.u.)
3,TCTAAATTCATCCTCAATAATTGATTCTTTTGGGAGGAGTCGGAGTCACCTAGTGCAG,20000 fluorescence intensity (a.u.)
4,CCTTGACTTGAGGATGAAATTGACTATCTAACCTTCAGATCGGAGTCACCTAGTGCAG,9580 fluorescence intensity (a.u.)
5,ACCAGACAGTGATTTTATATTTTAGATTTTGATGTAGGATCGGAGTCACCTAGTGCAG,7710 fluorescence intensity (a.u.)
6,ACCGGATTAGTAATTCCCCGCCGCCGTGCCGAGCCCGATTCGGAGTCACCTAGTGCAG,11700 fluorescence intensity (a.u.)
7,ATTGAAAATTTGATTGAAATTGAAATGATGCGATGAAAATCGGAGTCACCTAGTGCAG,30700 fluorescence intensity (a.u.)
8,AATTAACCTGATAACTAACTTAACAACCTCTGCGCGCCCCCGGAGTCACCTAGTGCAG,3380 fluorescence intensity (a.u.)
9,AGTTATTCTTCCTGATTGATTTCGCAGTTGCTGGAAGAAACGGAGTCACCTAGTGCAG,21400 fluorescence intensity (a.u.)
10,TACTAAATTGTAAATTTATTATTTCGGTATAATAACTTGGCGGAGTCACCTAGTGCAG,38900 fluorescence intensity (a.u.)
11,GGTAAATTTCTCCATCCAATACGTATCTCTGTTTGATAAACGGAGTCACCTAGTGCAG,3810 fluorescence intensity (a.u.)
12,TCCTGCGGTCCAATCAAACGGCAATTTCTGTGTTTTGCAACGGAGTCACCTAGTGCAG,5640 fluorescence intensity (a.u.)
13,ATACGGATTGAACACTTTCTAGGACTAAGAATCGGGTAAACGGAGTCACCTAGTGCAG,3710 fluorescence intensity (a.u.)
14,TAATTGGACTTAATTATCATCACCATATTAATATATTAGGCGGAGTCACCTAGTGCAG,23800 fluorescence intensity (a.u.)
15,ATGAATGAATGATGGAATCTTACTGGAATCTGTCGGAAATCGGAGTCACCTAGTGCAG,8860 fluorescence intensity (a.u.)
16,TCATAAATTATTTATAATTGCCTTGCTTAATTTACGCCTTCGGAGTCACCTAGTGCAG,28900 fluorescence intensity (a.u.)
17,AATAGCTAATACTTAATTAATCACGCGCTAATGGATCGCTCGGAGTCACCTAGTGCAG,6150 fluorescence intensity (a.u.)
18,TGTACAGTAAACTGATTAGCTCCTGCACTTCAGTTAATTGCGGAGTCACCTAGTGCAG,20800 fluorescence intensity (a.u.)
19,AGTTTGATTTACAAGTGCTTTCATATGTATGTTTGTTTTACGGAGTCACCTAGTGCAG,12400 fluorescence intensity (a.u.)
20,AGTACTGATTATATCCCCTAATAAAAGAAACATGAAGCAACGGAGTCACCTAGTGCAG,5590 fluorescence intensity (a.u.)
21,GAAAATTTAAACCGACATAAACAAATTTTCGAATATTTATCGGAGTCACCTAGTGCAG,3880 fluorescence intensity (a.u.)

row,Sequence,binding signal
1,ATATATATATATATATATATACATACATATACACACACACCGGAGTCACCTAGTGCAG,7300 fluorescence intensity (a.u.)
2,TTATTAAATTGGTTATAAATGAATTGTAGCTGGTTGATGGCGGAGTCACCTAGTGCAG,50000 fluorescence intensity (a.u.)
3,TGATTAATCAAGAGCATTTTGCACCATTAGTCGTTGGATGCGGAGTCACCTAGTGCAG,3190 fluorescence intensity (a.u.)
4,TTGTTGATAACCGATAATTTGGTAAATTATTGATTTTATTCGGAGTCACCTAGTGCAG,19900 fluorescence intensity (a.u.)
5,CTTGATTATTTCAATCTTGGAAACTGCAGGTGGAGAGAGGCGGAGTCACCTAGTGCAG,46000 fluorescence intensity (a.u.)
6,ACAATCCACTAACTGGAATTACTTCTATAGAGGAGCACACCGGAGTCACCTAGTGCAG,4390 fluorescence intensity (a.u.)
7,ATCTTTATAATTTCTTTGTTGACATGCAGAGTGTCCGTTGCGGAGTCACCTAGTGCAG,8960 fluorescence intensity (a.u.)
8,GTTCTTGATTGCGCCGCGTTGATATGTGAATTTAGCAGCTCGGAGTCACCTAGTGCAG,35400 fluorescence intensity (a.u.)
9,CCTATTGTAATTTCTTAATGTTGTAAAGGCGATGTACCGACGGAGTCACCTAGTGCAG,4720 fluorescence intensity (a.u.)
10,TTGTGATTTAATTTATCATCAACTATTCTTTTAAGCATGACGGAGTCACCTAGTGCAG,40500 fluorescence intensity (a.u.)
11,CCTAAACTAATCTCAAACAATCTAACCTATAAGCAAGCAGCGGAGTCACCTAGTGCAG,8610 fluorescence intensity (a.u.)
12,ATGCAATTGACTAAGCAAAAGGGAGCAGTCGTCCTAGTGGCGGAGTCACCTAGTGCAG,7920 fluorescence intensity (a.u.)
13,ATAAAACAAATTATAGATTCCACCTATAAACTGCGAGATGCGGAGTCACCTAGTGCAG,8890 fluorescence intensity (a.u.)
14,CTCTAATTTTAACCAAAATACAAAATTTACGCTGAACTAACGGAGTCACCTAGTGCAG,14700 fluorescence intensity (a.u.)
15,AATAAATTTAACCACTGTAACAATGTATTTCTCTCAGAATCGGAGTCACCTAGTGCAG,6380 fluorescence intensity (a.u.)
16,TATCATTGATTTCACTAAGGAGTGTGGAAGTCTGGGATCTCGGAGTCACCTAGTGCAG,3270 fluorescence intensity (a.u.)
17,TGGATTAAACTAATTTACTGATAAGGTGCGTACAAAATTGCGGAGTCACCTAGTGCAG,9850 fluorescence intensity (a.u.)
18,TCATTAACTTAATGAAGAACAAAACCCCATCATATCCGTTCGGAGTCACCTAGTGCAG,4370 fluorescence intensity (a.u.)
19,AGCTATTAGTAGATTGGCTATAAATGAATTGGAGTTAGTACGGAGTCACCTAGTGCAG,14900 fluorescence intensity (a.u.)
20,GAACTAATTTACTCCTAATCGTGCACTCCTTCACCACCAACGGAGTCACCTAGTGCAG,24000 fluorescence intensity (a.u.)
21,CCATACAATTGATTACTGGGGCAAAGCTGTCTTAAATACGCGGAGTCACCTAGTGCAG,28100 fluorescence intensity (a.u.)
